Source: PubChem BioAssay AID686979 (National Center for Advancing Translational Sciences (NCATS), 2013)
Where “and” joins values, the source holds several entries; their conditions need not be identical. Identical values can stand only once. In all, about 420,000 compounds went through this assay and about 50,000 (12%) were called active. This list was built around the results that the source calls inconclusive (neither active nor inactive); the mix of calls is not that of the screen. Calls follow the shape of the dose curve; as a rule, active = well fitted inhibition curve with a large enough effect; inconclusive = small, poorly fitted or top-dose-only effect; inactive = flat fitted curve, though single readings scatter. Where the call is inconclusive, the potency comes from a doubtful curve fit.

Assay: qHTS for Inhibitors of human tyrosyl-DNA phosphodiesterase 1 (TDP1): qHTS in cells in presence of CPT; also: nearly all actives have a fitted effect of over 55% in size
Settings: chicken DT40 Tdp1-/-;hTDP1 cells + 20 nM CPT, ATP luminescence, 48 h; activity change, negative = growth inhibition: at 46.2 µM (top of the series)
Method in brief: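 Chicken DT40 Tdp1-/- cells complemented with human TDP1, 400 cells/well, exposed to compounds plus 20 nM camptothecin for at least 48 h at 37 C; viability read as ATP content by CellTiter-Glo luminescence.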
% is scaled to controls: 0 for no effect and ±100 for the full control effect; potency is read from the fitted curve at half-maximal effect; tags tell the direction and shape of the fitted curve.

Structure (SMILES) | activity change, negative = growth inhibition | Potency
CCN(CC)S(=O)(=O)c1cccc(C(=O)NC(C(=O)Nc2nnc(C3CC3)s2)C(C)C)c1 (configuration not stated) | inactive: -5.4% | –
CCCCn1c(=N)n(CC(O)COc2ccccc2)c2ccccc21 (configuration not stated) | – | active: 11.6 µM
CCOC(=O)N1CCN(c2cc(C)nc3nc(C)nn23)CC1 | inactive: 10.9% | –
CCN(CC)CCN(C(=O)Cn1nnc(-c2ccc(C)o2)n1)C(C(=O)NC1CCCC1)c1ccc(F)cc1 (configuration not stated) | inactive: -17.8% | –
Cc1ccccc1NC(=O)c1c2c(nc3ccccc13)C(=O)N(C1CCCCC1)C2 | – | inconclusive: 29.1 µM [inhibitor, single point]
N#CC1=C(N)N(c2ccccc2)C2=C(C(=O)CCC2)C1c1ccccc1 (configuration not stated) | – | inconclusive: 20.6 µM [inhibitor, single point]
O=C(NCCc1ccc(Cl)cc1)c1cccc(S(=O)(=O)N2CCCC2)c1 | inconclusive: -32.4% [inhibitor] | –
Cc1ccccc1OCc1nc(-c2ccc(NC(=O)c3ccco3)cc2)no1 | – | inconclusive: 29.1 µM [inhibitor, single point]
CCCn1nc(NC(=O)c2ccccn2)c2cc3cc(C)ccc3nc21 | – | inconclusive: 29.1 µM [inhibitor, single point]
COc1ccc(Cl)cc1/C=C(\C#N)C(N)=O | – | inconclusive: 23.1 µM [inhibitor, single point]
CCOC(=O)N1CCN(CC(=O)Nc2nc3ccc(OC)cc3s2)CC1 | – | inconclusive: 16.4 µM [inhibitor, single point]
CCc1nc2nc(C)cc(Nc3ccc(Br)cc3F)n2n1 | – | active: 16.4 µM
Cc1cc(Br)c(OCc2ccc(C(=O)N/N=C/c3ccc[nH]3)cc2)c(Br)c1 | – | inconclusive: 29.1 µM [inhibitor, single point]
COc1cccc2sc3ccc(C#CC4(N)CCCCC4)cc3c(=O)c12 | – | active: 16.4 µM
COc1ccc(Nc2nc(NCC3CCCO3)nc(N)c2[N+](=O)[O-])cc1 (configuration not stated) | – | inconclusive: 18.4 µM [inhibitor, single point]
CO/N=C/CC(=O)c1cnc(-c2ccc(Cl)cc2)s1 | – | inconclusive: 29.1 µM [inhibitor, single point]
O=C(NCCO)C(=O)Nc1cc2c3c(c1)CCC(=O)N3CCC2 | inactive: 14.4% | –
CC(=O)c1c(C)[nH]c(C(=O)NCCc2ccc(Cl)cc2)c1C | – | inconclusive: 32.6 µM [inhibitor, single point]
CCSc1nnc(Cn2c(=O)sc3ccccc32)n1-c1ccccc1C | – | inconclusive: 16.4 µM [inhibitor, single point]
CCCNC(=O)c1ccccc1NC(=O)Cc1ccc(OC)c(S(=O)(=O)N2CCOCC2)c1 | inactive: 0.853% | –
CCN(CCCNC(=O)COc1cc(=O)n(C)c2ccccc12)c1cccc(C)c1 | – | inconclusive: 29.1 µM [inhibitor, single point]

Structure (SMILES) | activity change, negative = growth inhibition | Potency
CCN(CC)c1ccc(NC(=O)COc2ccc(N(C)S(=O)(=O)c3cccs3)cc2)cc1 | – | inconclusive: 18.4 µM [inhibitor, partial curve]
CCC1COCCS(=O)(=O)N1Cc1ccc(Cl)cc1 (configuration not stated) | – | inactive and inconclusive: 35.5 µM [inhibitor, single point]
[N-]=[N+]=NC[C@H](Cc1ccccc1)N1CC[C@@H](OCc2ccccc2)CCC1=O | – | inconclusive: 23.1 µM [inhibitor, partial curve, poor fit]
CC1(C)CC(=O)C(C=NCC2CCN(C(=O)Nc3ccc(Cl)c(Cl)c3)CC2)=C(O)C1 | – | inconclusive: 16.4 µM [inhibitor, partial curve, poor fit]
O=C(CCCc1nc2ccccc2s1)NCc1cccnc1 | – | inconclusive: 29.1 µM [inhibitor, single point]
Cn1nccc1C(=O)N1CCCC(C(=O)c2ccc(Oc3ccccc3)cc2)C1 (configuration not stated) | – | inconclusive: 29.1 µM [inhibitor, single point]
Cc1cccc(NC(=O)c2ccc3ccccc3n2)n1 | – | inconclusive: 29.1 µM [inhibitor, single point]
COC(=O)Nc1ccc(S(=O)(=O)n2cnc3ccccc32)cc1 | – | inconclusive: 10 µM [inhibitor, partial curve, poor fit]
COc1cc(C=O)ccc1OCCCOc1ccc([N+](=O)[O-])cc1 | – | inconclusive: 18.4 µM [inhibitor, single point]
CCc1c(C)sc(NC(=O)c2cc(-c3ccc(OC)cc3)on2)c1C#N | inactive: 0.0396% | –
CCOc1ccc(CNC(=O)c2cc3c(=O)n(Cc4cccs4)ccc3nc2C)cc1 | – | active: 9.2 µM
CC/C(C)=N\Nc1nc(-c2cc3cc(OC)ccc3oc2=O)cs1 | – | inconclusive: 23.1 µM [inhibitor, single point]
CC(C)NC(=O)C1CCN(C2CCN(C(=O)c3cc4c(s3)CCCCC4)CC2)CC1 | – | inconclusive: 23.1 µM [inhibitor, partial curve]
COC(=O)c1c(NC(=O)CSc2nnc(CNc3ccc(Cl)cc3)o2)sc(C)c1C | – | inconclusive: 29.1 µM [inhibitor, single point]
C=C(C)CSc1nc(N)c(C#N)c(-c2ccc(C)cc2)c1C#N | – | inconclusive: 23.1 µM [inhibitor, single point]
CCC1(C)CC2(CCCN(CCC(O)(c3ccccc3)c3ccccc3)C2)CCO1 (configuration not stated) | – | inconclusive: 16.4 µM [inhibitor, single point]
COc1ccc(-c2nc3ccc(NS(=O)(=O)c4ccccc4)cc3o2)cc1 | – | inconclusive: 25.9 µM [inhibitor, single point]
COc1cccc(CNC(=O)c2cc3n(n2)CCCN(Cc2ccc(C)cc2)C3=O)c1OC | – | active: 23.1 µM
Cc1ccc(C2CC(C(F)F)n3ncc(C(=O)Nc4cnn(Cc5ccccc5C)c4)c3N2)cc1 (configuration not stated) | – | inconclusive: 20.6 µM [inhibitor, single point]
C#CCN(C[C@@H]1[C@@H](OC(=O)NCc2ccco2)[C@@H](OC(=O)NCc2ccco2)Cn2c(=O)n(CCCCCC)c(=O)n21)S(=O)(=O)c1ccc(C)cc1 | – | active: 14.6 µM
COC(=O)c1nc2nc(-c3cccs3)cc(C(F)(F)F)n2n1 | inactive: 8.35% | –
